Experimental findings from paper doi:10.1101/2024.09.04.610228 (bioRxiv, 2024) are described below.

The target of this assay is FOXO4 forkhead domain (FHD) (95-195) (UniProt P98177 95-195). Put plainly: NMR 1H-15N heteronuclear NOE.

B1: p53 transactivation domain (TAD) ([…]) (domain or fragment)
chain: not shown
On to B1, for which the binding result is “binds”.
